Laboratory results published in PubChem BioAssay AID504339 (National Center for Advancing Translational Sciences (NCATS), 2011).
Out of some 390,000 compounds screened, about 17,000 (4.4%) were called active. The inconclusive results got no clear call from the source; some entries with a clear call stand among them for comparison. The call rests on the fitted dose curve; in most records, active means well fitted inhibition curve with a large enough effect; inconclusive means small, poorly fitted or top-dose-only effect; inactive means no such curve, though single readings can be large or run the other way. Where the call is inconclusive, the potency comes from a doubtful curve fit.

These compounds were tested against Lysine-specific demethylase 4A (Homo sapiens) (UniProt O75164) (assay: qHTS Assay for Inhibitors of JMJD2A-Tudor Domain). Conditions: AlphaScreen JMJD2A-Tudor / H3K4me3 peptide binding; series mostly up to 114 µM.
Further: nearly all actives have a fitted effect of over 50% in size.
Potency means the concentration at half of the fitted maximal effect; tags describe the fitted curve by direction and shape.

Sequence of UniProt O75164 (O75164 whole entry, looked up, the tested form may be a part): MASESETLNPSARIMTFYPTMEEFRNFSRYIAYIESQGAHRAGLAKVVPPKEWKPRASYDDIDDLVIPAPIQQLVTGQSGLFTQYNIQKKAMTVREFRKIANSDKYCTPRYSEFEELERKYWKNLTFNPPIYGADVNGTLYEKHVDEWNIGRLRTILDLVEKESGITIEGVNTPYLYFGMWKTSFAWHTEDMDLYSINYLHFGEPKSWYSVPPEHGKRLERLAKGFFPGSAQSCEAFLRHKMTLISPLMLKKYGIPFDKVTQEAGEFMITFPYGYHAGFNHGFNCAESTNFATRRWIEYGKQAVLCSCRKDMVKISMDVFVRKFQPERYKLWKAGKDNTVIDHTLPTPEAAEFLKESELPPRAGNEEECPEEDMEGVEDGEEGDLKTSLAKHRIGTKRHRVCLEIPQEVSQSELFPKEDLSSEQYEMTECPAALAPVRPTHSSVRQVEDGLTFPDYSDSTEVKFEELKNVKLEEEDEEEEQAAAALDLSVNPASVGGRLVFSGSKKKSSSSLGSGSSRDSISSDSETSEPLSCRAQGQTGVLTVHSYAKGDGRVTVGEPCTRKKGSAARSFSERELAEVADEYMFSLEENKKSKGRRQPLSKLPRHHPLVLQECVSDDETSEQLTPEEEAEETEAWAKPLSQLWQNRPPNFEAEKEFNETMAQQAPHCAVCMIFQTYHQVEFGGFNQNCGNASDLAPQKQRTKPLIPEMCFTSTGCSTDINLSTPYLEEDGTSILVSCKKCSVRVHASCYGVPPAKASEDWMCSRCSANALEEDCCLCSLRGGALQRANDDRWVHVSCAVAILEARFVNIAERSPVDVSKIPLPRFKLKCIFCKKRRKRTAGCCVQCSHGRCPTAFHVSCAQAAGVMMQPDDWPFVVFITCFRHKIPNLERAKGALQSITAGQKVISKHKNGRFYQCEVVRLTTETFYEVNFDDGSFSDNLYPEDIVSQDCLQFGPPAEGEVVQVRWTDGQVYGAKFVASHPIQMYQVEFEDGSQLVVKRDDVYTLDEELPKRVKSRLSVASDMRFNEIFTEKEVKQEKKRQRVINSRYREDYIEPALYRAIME

| Structure (SMILES) | Potency |
| --- | --- |
| CCN(CC)CCNS(=O)(=O)c1ccc2[nH]cc(C(=O)O)c(=O)c2c1 | active: 56.2 µM |
| CC1=C(SCc2ccccc2)C(=O)c2ccccc2C1=O | active: 14.1 µM |
| O=S(=O)(CCNCc1ccco1)NC1CCCCC1 | inactive |
| COc1ccc(OCCN(C)CC(=O)Nc2ccccc2SC)cc1 | inactive |
| Cc1ccc(-c2[nH]c3ccccc3c2SCCNC(=O)c2cc3ccccc3oc2=O)cc1 | inconclusive: 14.1 µM [inhibitor, full curve, poor fit] |
| O=C(c1ccoc1)N1CCC2(CC1)Oc1ccc(F)cc1C(=O)C21CC(c2cccnc2)=NO1 (stereo unspecified) | inconclusive: 79.4 µM [inhibitor, partial curve] |
| CC(C)(Oc1ccc(Cl)cc1)C(=O)Nc1nnc2n1CCS2 | active: 79.4 µM |
| Cc1ccc(N=C2C(=S)N(c3ccc(C)cc3)C(=N)N2/N=C/c2ccc(Cl)cc2)cc1 | inconclusive: 2.51 µM [inhibitor, full curve, poor fit] |
| COc1ccc(O)c(CN2CCC(n3nccc3NC(=O)C3CCCC3)CC2)c1 | inconclusive: 56.2 µM [inhibitor, partial curve] |
| COc1cc(Nc2nc3ccccc3nc2NS(=O)(=O)c2ccc([N+](=O)[O-])cc2)cc(OC)c1OC | inconclusive: 11.2 µM [inhibitor, full curve] |
| COc1ccccc1NC(=O)CC1S/C(=N/N=C2\CCCc3ccccc32)NC1=O (stereo unspecified) | inconclusive: 50.1 µM [inhibitor, partial curve] |
| O=C1Nc2ccccc2C1Cc1ccccc1 (stereo unspecified) | inconclusive: 89.1 µM [inhibitor, single point] |
| COc1ccc(/C=N/NC(=O)c2cc(C)n(-c3ccccc3)c2C)cc1OC | inconclusive: 35.5 µM [inhibitor, partial curve] |
| CCCCOc1ccc(NC(=O)CN2CCN(CC)CC2)cc1 | active: 0.794 µM |
| CCc1ccc(NC(=O)CS(=O)CC(=O)Nc2ccc(N3CCOCC3)cc2)cc1 (stereo unspecified) | active: 39.8 µM |
| C=CCN1C=C2C(=O)C(C)(OC(=O)c3cnc4ccccc4n3)C(=O)C=C2C=C1/C=C/COC (stereo unspecified) | inconclusive: 89.1 µM [inhibitor, partial curve] |
| COc1ccc(C)cc1Nc1n[n+](-c2ccccc2)c(-c2ccc(OC)c(OC)c2OC)s1 | inconclusive: 39.8 µM [inhibitor, full curve, poor fit] |
| Nc1ccc2nc(-c3ccccn3)[nH]c2c1 | inconclusive: 35.5 µM [inhibitor, partial curve, poor fit] |
| COc1ccc(N/C=C(\C#N)c2nc3ccccc3n2C)c(OC)c1 | inconclusive: 6.31 µM [inhibitor, full curve, poor fit] |
| O=C(N/N=C\C=C\c1ccco1)C1COc2ccccc2O1 (stereo unspecified) | inconclusive: 79.4 µM [inhibitor, single point] |
| CN(C)CC(=O)c1ccc(-c2ccccc2)cc1 | inactive |
| O=C(NCCNC1CCC(c2ccccc2)CC1)c1ccc(F)cc1 (stereo unspecified) | active: 5.62 µM |
| Cc1c(CN2CCC(CO)(Cc3ccccc3)CC2)c2ccccc2n1C | inconclusive: 50.1 µM [inhibitor, partial curve] |

| Structure (SMILES) | Potency |
| --- | --- |
| O=C(NC1CC(=O)N(c2ccc3c(c2)OCCO3)C1)N1CCC(O)CC1 (stereo unspecified) | inactive |
| CCOC(=O)C1CCN(C/C=C/c2ccccc2[N+](=O)[O-])CC1 | active: 2.24 µM |
| CCOC(=O)c1cc2cc(-c3c(C(=O)OCC)oc4cc(O)cc(O)c4c3=O)ccc2o1 | inconclusive: 44.7 µM [inhibitor, partial curve] |
| CC(Sc1nc2c([nH]c3ccccc32)c(=O)n1-c1ccccc1)c1ccccc1 (stereo unspecified) | inconclusive: 63.1 µM [inhibitor, partial curve, poor fit] |
| Cc1ccc(C(=O)N[C@@H](Cc2ccccc2)C(=O)N2CCC3(CC2)NCCc2[nH]cnc23)cc1C | inactive |
| O=C(Cc1ccc(Br)c2ccccc12)N/N=C/c1ccccn1 | inconclusive: 89.1 µM [inhibitor, partial curve] |
| CCN(CC)c1ccc(NC(=S)NC(=O)C2CCC2)cc1 | active: 44.7 µM |
| CCOC(=O)C1CCN(C(=O)c2ccc3c(c2)N=C(CC)c2cc(C)ccc2S3)CC1 | inconclusive: 31.6 µM [inhibitor, partial curve] |
| CCOC(=O)C1CCCN(CC(=O)Nc2c(F)c(F)c(F)c(F)c2F)C1 (stereo unspecified) | inactive |
| O=C(O)/C=C/C(=O)NCCCc1ccccc1 | inconclusive: 22.4 µM [inhibitor, full curve] |
| COc1cc(OC)c(NC(=O)N2CC=C(c3c[nH]c4ccccc34)CC2)cc1Cl | inconclusive: 14.1 µM [inhibitor, partial curve, poor fit] |
| O=C(Nc1ccc2nc3n(c(=O)c2c1)CCCC3)c1cccnc1Cl | inconclusive: 25.1 µM [inhibitor, full curve] |
| CC1CCCCN1C(=O)COc1ccccc1F (stereo unspecified) | active: 56.2 µM |
| Cn1ncc(Cl)c1C(=O)N/N=C/c1ccccn1 | inconclusive: 0.631 µM [inhibitor, full curve, poor fit] |
| O=C(/C=C/c1ccc(O)cc1)c1ccccc1 | inactive |
| Cc1nn(CCCC(=O)O)c(C)c1[N+](=O)[O-] | inactive |
| O=C(O)c1ccc(C2Nc3ccccc3-c3nnc(SCc4ccc(Cl)cc4)nc3O2)cc1 (stereo unspecified) | inconclusive: 56.2 µM [inhibitor, partial curve] |
| Cc1oc2ccc(O)cc2c1C(=O)c1ccc([N+](=O)[O-])cc1 | inconclusive: 56.2 µM [inhibitor, partial curve] |
| O=C(Cn1c(=O)n2nc(-c3cccc(F)c3)nc2c2ccccc21)N1CCN(c2ccccc2F)CC1 | inactive |
| O=C(c1cccc(Cl)c1)N1CCC(c2nc3ccccc3o2)CC1 | inactive |
| Cc1ccc(C)c(NC(=O)CN(C)C(=O)c2cc(S(=O)(=O)N3CCOCC3)ccc2N2CCCC2)c1 | inactive |
| CCS(=O)(=O)Nc1cc2c3c(c1)CCN3C(=O)CC2 | inconclusive: 50.1 µM [inhibitor, partial curve] |
| COc1ccc(/C=C2/SC(=O)N(CCCCCC(=O)Nc3ccccc3C(=O)O)C2=S)cc1 | inconclusive: 50.1 µM [inhibitor, partial curve] |
